Consider 34 variants from the RNAGym collection of RNA variant scans (doi:10.1093/nar/gkz1192).

B1: CPEB3 Ribozyme (parent)
chain: UAACAGGGGGCCACAGCAGAAGCGUUCACGUCGCAGCCCCUGUCAGAUUCUGGUGAAUCUGCGAAUUCUGCUGUAUAUCUC

Read counts are not given, so values of variants with three or more changes are uncertain.

The variants in this data set derive from B1. The data set can be described thus: self-cleavage, relative activity (ratio to wild type); higher = more cleavage; in vitro, sequencing. The procedure, abridged:
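Relative activity was defined as the cleaved/total read fraction for a variant divided by the same fraction for the unmutated ribozyme. CPEB3 self-cleaving ribozyme libraries were made by rounds of error-prone PCR, barcoded, and transcribed in vitro with T7 RNA polymerase for 5 hours at 37°C, and cleavage ran through transcription plus a 15 min DNase I step before EDTA. Illumina sequencing of template-switched reverse transcripts gave the reads, and DNA sequencing mapped the barcodes. Averages come from three batches, using variants with at least 5 reads.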
Turning to UAACAGGGGGCCACAGCAGAAGCGUUCACGUCGCAGCCCCUGUCAGAUCCUGUUGAAUCAGCUAAUUCUGCUGUAUAUCUC, the self-cleavage came out at 0.12. For the variant UAACAGGGGGCCACAGCAGAAGCGUUCACGUCGCAGCCCCUGUCAGAUCCUGGUGGAUCUGCGUAUUCUGCUGUAUAUCUC, the self-cleavage came out at 0.3.

With UAACAGGGGGCCACAGCAGAAGCGUUCACGUCGCAGCCCCUGUCAGAUCCUGGUUAAUCUGCGAAUUCUGCCGUAUAUCUC, the self-cleavage stood at 0.2. The value for UAACAGGGGGCCACAGCAGAAGCGUUCACGUCGCAGCCCCUGUCAGAUCCUGGCGUAUCUGCGAAUUCUGCUGUAUAUCUC was 0.3; that for UAACAGGGGGCCACAGCAGAAGCGUUCACGUCGCAGCCCCUGUCAGAUCCUGGAGAAUCUGCGAAUUCUGCCGUAUACCUC was 0.36. The value for UAACAGGGGGCCACAGCAGAAGCGUUCACGUCGCAGCCCCUGUCAGAUCCUGGUGGAUCUGCGAAUUCUGCUGUGUAACUC was 1.06. Next, UAACAGGGGGCCACAGCAGAAGCGUUCACGUCGCAGCCCCUGUCAGAUCCUGGUGAUUCUACGAAUUCUGCUGUAUAUCUC: 0.17.

With UAACAGGGGGCCACAGCAGAAGCGUUCACGUCGCAGCCCCUGUCAGAUCAUGGUGAAUCUGCGUAUUCUGCUGUAUAUCUC, the self-cleavage is 0.32. In the case of UAACAGGGGGCCACAGCAGAAGCGUUCACGUCGCAGCCCCUGUCAGAUCCUGGUGAGUCUGCGAAUUCAGCUGUAUAUCUC, the self-cleavage turned out to be 0.32. The value for UAACAGGGGGCCACAGCAGAAGCGUUCACGUCGCAGCCCCUGUCAGAUCCUGGAGAGUCUUCGAAUUCUGCUGUAUAUCUC was 0.14; that for UAACAGGGGGCCACAGCAGAAGCGUUCACGUCGCAGCCCCUGUCAGAUACUGGUGAAUCUGCGAAUUCUGCCGAAUAUCUC was 1.22.

For the variant UAACAGGGGGCCACAGCAGAAGCGUUCACGUCGCAGCCCCUGUCAGAUCCUGGUGAAUCUGAGAAUUCUGCGGUAUACCUC, the self-cleavage is 0.15. Next, UAACAGGGGGCCACAGCAGAAGCGUUCACGUCGCAGCCCCUGUCAGAUCCUGGUGAAUCUGCGGAUCCAGCUGUAUAUCUC: 0.15.

With UAACAGGGGGCCACAGCAGAAGCGUUCACGUCGCAGCCCCUGUCAGAUCCUAGUGUAUCUGCGAAUUCUGCUGCUUAUCUC, the self-cleavage came to 1.04. Next, UAACAGGGGGCCACAGCAGAAGCGUUCACGUCGCAGCCCCUGUCAGAUACUGGUGAAUCUGCGAAUUCUGCUGAAUACCUC: 1.03; UAACAGGGGGCCACAGCAGAAGCGUUCACGUCGCAGCCCCUGUCAGAUCCUGAUGAAUCUGCGAAUUCUGCUGUAUAUCCC: 0.41. The value for UAACAGGGGGCCACAGCAGAAGCGUUCACGUCGCAGCCCCUGUCAGAUCCUGGUGGUUCUGCGAAUUCUGCUGUAUAUCUC was 0.37. The value for UAACAGGGGGCCACAGCAGAAGCGUUCACGUCGCAGCCCCUGUCAGAUCCAGCUGAAUCUGCGAACUCUGCAGUAUAUCUC was 0.09; that for UAACAGGGGGCCACAGCAGAAGCGUUCACGUCGCAGCCCCUGUCAGAUCCUGGUGGAUCUACGAAUUCUGCUGUAUAUCUC was 0.31; that for UAACAGGGGGCCACAGCAGAAGCGUUCACGUCGCAGCCCCUGUCAGAUCCCGGCGAAUCCGCGAAUUCUGCUGUAUAUCUC was 0.05. As for UAACAGGGGGCCACAGCAGAAGCGUUCACGUCGCAGCCCCUGUCAGAUCCUGGAGAAUCUGCGAAUCCUGCUGUAUAUCUC, the self-cleavage is 0.4. Next, UAACAGGGGGCCACAGCAGAAGCGUUCACGUCGCAGCCCCUGUCAGAUCCUGGUGGACCUGCGAAUUCAGCUGUGUAUCUC: 0.15; UAACAGGGGGCCACAGCAGAAGCGUUCACGUCGCAGCCCCUGUCAGAUCCUAGUGAAUCUGCGAACUCUGCUGUAUAUCUC: 0.12. Next, UAACAGGGGGCCACAGCAGAAGCGUUCACGUCGCAGCCCCUGUCAGAUCCUGCUGAAUCUGCGAAUUCUGCUGUAUAUCAC: 0.6; UAACAGGGGGCCACAGCAGAAGCGUUCACGUCGCAGCCCCUGUCAGAUCCUCGUGAAUCUGCGAGCUCUGCUGUACAUCUC: 0.26; UAACAGGGGGCCACAGCAGAAGCGUUCACGUCGCAGCCCCUGUCAGAUCCAGGUGAAUCUCCGAAUUCUGCCGUAUAUCUC: 0.27. The value for UAACAGGGGGCCACAGCAGAAGCGUUCACGUCGCAGCCCCUGUCAGAUACUGGUGAAUCUGCGAAUUCUGCUGUACUUCUC was 0.99; that for UAACAGGGGGCCACAGCAGAAGCGUUCACGUCGCAGCCCCUGUCAGAUACUGGUGAAUCUGCGAAUUCAGCUGUAUAACUU was 0.32; that for UAACAGGGGGCCACAGCAGAAGCGUUCACGUCGCAGCCCCUGUCAGAUCCUGGUGAAUCUGCGUAUUCUGCUGUUUAUCUC was 0.1. Take UAACAGGGGGCCACAGCAGAAGCGUUCACGUCGCAGCCCCUGUCAGAUCCUGGUGAAUCUGCAAAAUCUGCUGUAUAUCUC: the self-cleavage is 0.4. Take UAACAGGGGGCCACAGCAGAAGCGUUCACGUCGCAGCCCCUGUCAGAUCCAGGAGAAUCUGCGAAUUCUGCUGUAUAUCAC: the self-cleavage is 0.27. For UAACAGGGGGCCACAGCAGAAGCGUUCACGUCGCAGCCCCUGUCAGAUCCUGGUGAUUCUACGAAUUCUGCUGUAUAUCAC, the self-cleavage is 0.16. The value for UAACAGGGGGCCACAGCAGAAGCGUUCACGUCGCAGCCCCUGUCAGAUCCUGGUAUAUCUGCGUAUUCUGCUGUAUGUCUC was 0.07; that for UAACAGGGGGCCACAGCAGAAGCGUUCACGUCGCAGCCCCUGUCAGAUCCUGGUGGAUCUGCGAAUUCUGCUGUAUAUCCC was 1.07.
